From PubChem BioAssay AID1240 (Sanford-Burnham Center for Chemical Genomics, 2008)
Out of some 50,000 compounds screened, about 800 (1.6%) showed an effect of 50% or more. The list shows a part of the results.

molecular target: Bcl-2-like protein 10 (Homo sapiens) (UniProt Q9HD36); assay: TR3 peptide-Bcl-B binding displacers, biochemical primary FP assay, phenotype converters (AID 1240); conditions: GST-Bcl-B / FITC-TR3 peptide fluorescence polarization; stronger effect = higher value; compound at 3.75 mg/L;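 note: 0% = Bcl-B with tracer peptide and DMSO and 100% = tracer peptide lacking Bcl-B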
UniProt Q9HD36, sequence (Q9HD36 whole entry, looked up): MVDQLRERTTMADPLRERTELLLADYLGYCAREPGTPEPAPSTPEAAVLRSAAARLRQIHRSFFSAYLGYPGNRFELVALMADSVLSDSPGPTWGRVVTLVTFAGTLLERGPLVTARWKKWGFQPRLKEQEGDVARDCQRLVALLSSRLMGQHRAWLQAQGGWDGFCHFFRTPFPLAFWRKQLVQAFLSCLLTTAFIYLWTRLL

Row | Structure (SMILES) | displacement [%]
1 | O=[N+]([O-])c1ccc(N2CCN(CCO)CC2)cc1NC(c1ccccc1)c1ccccc1 | 8.3
2 | COc1cc(CN2CCN(Cc3cc(OC)c(OC)c(OC)c3)CC2)cc(OC)c1O | -2.4
3 | c1ccc(-n2nnnc2SCc2nn[nH]n2)cc1 | 6.4
4 | O=C(Nc1cccc2ccccc12)c1ccc(CN2CCc3ccccc3C2)cc1 | -18.6
5 | C=CCc1cccc(/C=N/N2CCN(c3ccc(Cl)cc3)CC2)c1O | -8.1
6 | CCCCn1c(=N)n(CC(=O)c2cccs2)c2ccccc21 | 2.7
7 | COc1ccc2c(c1)OCC/C2=N/OC(=O)c1cccc(F)c1 | -7.8
8 | COc1ccc(-c2cc(C(=O)Nc3ccccc3Br)c3ccccc3n2)cc1 | 4.7
9 | CC1=C(C(=O)Nc2ccccc2)C2(CCCCC2)C(C#N)=C(SCC(=O)Nc2ccc(Br)cc2)N1 | -6.8
10 | Cc1ccc(N2C(=O)/C(=C/c3cccc(Br)c3)SC2=S)cc1C | 14.7
11 | O=C(NCc1ccccn1)c1ccc([N+](=O)[O-])cc1 | 7.9
12 | CC(=O)O/N=C(/c1ccc([N+](=O)[O-])cc1)N1CCOCC1 | -6.6
13 | CCOc1ccc(N2C(=O)CC(N3CCCCC3)C2=O)cc1 (centres undefined) | -6.7
14 | CC(C)c1ccc(/C=C2\SC(=S)N(Cc3ccccc3)C2=O)cc1 | 2.6
15 | Cc1cc(N2C(=O)NC(=O)/C(=C\c3ccc4c(c3)OCO4)C2=O)ccc1Br | -15.5
16 | COc1ccc(Cl)cc1NC(=O)CN(c1ccc(C)cc1)S(=O)(=O)c1ccc(OC)c(OC)c1 | 12.2
17 | O=[N+]([O-])c1ccc2nc3c([nH]c4ccccc43)c(N3CCOCC3)c2c1 | -5.5
18 | COC(=O)C1=C(C)NC(=S)NC1c1ccc(OCC(=O)N2CCCCC2)c(OC)c1 (centres undefined) | -7.6
19 | O=C(Nc1cc([N+](=O)[O-])ccc1F)c1ccccc1 | 15.6
20 | COc1ccc(C)cc1NC(=O)c1cc(Cl)ccc1OC | 8.5
21 | COc1cc(NC(=O)c2cc(Cl)c(OC)c(Cl)c2)ccc1NC(=O)c1ccco1 | 16.5
22 | O=C1C(Cl)=C(N2CCOCC2)C(=O)N1c1cccc(Cl)c1Cl | 11.1
23 | O=C(CCCN1C(=O)c2cccc3cccc(c23)C1=O)N1CCN(Cc2ccc3c(c2)OCO3)CC1 | 28.8

Row | Structure (SMILES) | displacement [%]
24 | CC(C)Cc1ccc(C(C)C(=O)NC(C)Cc2ccccc2)cc1 (centres undefined) | -2.3
25 | O=C(CSc1nc2ccc([N+](=O)[O-])cc2s1)NCC1CCCO1 (centres undefined) | 1
26 | CC1=CC(C)(C)N(C(N)=S)c2cc(C)ccc21 | -9.7
27 | Cc1cc2nc(-c3cc(NC(=O)c4ccco4)ccc3Cl)oc2cc1C | -6.9
28 | Cc1cc(-c2ccccc2)nc2cc(C(N)=O)nn12 | 24.5
29 | CC(=O)N/C(=C\c1cccc([N+](=O)[O-])c1)C(=O)NC(C)C | 5.9
30 | CCCCOc1ccc(NC(=O)c2cncc(Br)c2)cc1 | 20.5
31 | Cc1ccc(S(=O)(=O)Nc2cc(Sc3ncn[nH]3)c(O)c3ccccc23)cc1 | 19.5
32 | Cc1cc(C)n(-c2cc(Oc3ccccc3)nc(-c3ccccc3)n2)n1 | 0.3
33 | O=C(CCc1ccccc1)Nc1cc(C(=O)O)cc(C(=O)O)c1 | 10.2
34 | COC(=O)C1=CN(Cc2ccc(OC)cc2)C=C(C(=O)OC)C1c1ccc2c(c1)OCO2 | 1.8
35 | COc1cc(/C=C2/C(=O)NC(=O)N(c3cccc(F)c3)C2=O)ccc1OCc1ccc(C(=O)O)cc1 | -8
36 | O=C1CC(SC(=NCc2ccc3c(c2)OCO3)Nc2ccccc2)C(=O)N1c1ccc(Cl)cc1 (centres undefined) | -7.6
37 | CCOC(=O)c1ccc(N=Cc2ccc(Br)s2)cc1 | 2.7
38 | COc1cc(C(=O)NCc2ccc(C)cc2)c([N+](=O)[O-])cc1OC | 13.6
39 | COc1nc(-c2ccccc2)c[n+](C)n1 | 6.3
40 | COc1cccc(C(=O)NC(NC(=S)Nc2ccc(Cl)cc2Cl)C(Cl)(Cl)Cl)c1 (centres undefined) | 4.2
41 | O=C(CSc1nc(O)cc(=O)[nH]1)Nc1ccccc1 | 15.9
42 | COc1ccccc1OCCSc1nc2ccccc2c(=O)[nH]1 | 0.1
43 | CCc1cccc(NC(=O)CC(c2ccccc2)c2ccccc2)c1 | 5.7
44 | N#Cc1cc2c(nc1SCc1ccc(Cl)cc1)CCCC2 | 4.5
45 | O=C(NCc1ccccn1)C(=O)Nc1ccc([N+](=O)[O-])cc1 | 11.7
46 | Cc1ccccc1N(CC(=O)NC(C)(C)C)S(C)(=O)=O | -1.1

Row | Structure (SMILES) | displacement [%]
47 | Cc1ccc(S(=O)(=O)Nc2ccccc2-c2nc3ccccc3c(=O)o2)cc1 | -0.8
48 | COc1cc(=O)n(C)c2c(OCC(O)C(C)(C)O)cccc12 (centres undefined) | -5.7
49 | Cc1c(Cl)cccc1NCCC(=O)c1ccc([N+](=O)[O-])cc1 | -7.6
50 | CC(=O)C1=C(O)C(=O)N(CCN(C)C)C1c1ccc([N+](=O)[O-])cc1 (centres undefined) | -1.6
51 | COc1cc2c(cc1OC)C(SC)=NC1(CCCC1)C2 | -11.1
52 | COc1ccccc1NC(=O)c1cc(=O)[nH]c2ccccc12 | -3.9
53 | COc1ccc(N(CC(=O)Nc2ccc(C(=O)N3CCOCC3)cc2)S(=O)(=O)c2ccccc2)cc1 | 15.2
54 | COc1cccc(NC(=O)c2ccc(OC)c(Br)c2)c1 | 2.4
55 | CCc1cc(=O)oc2cc(C)cc(OCC(=O)c3ccccc3)c12 | 13.2
56 | COc1cc(NC(=O)c2ccc3ccccc3c2)ccc1NC(=O)c1ccco1 | 0.4
57 | CCCCOc1ccc2c(=O)c(-c3ccccc3OC)coc2c1 | 7
58 | COc1ccccc1C(=O)Nc1nc2ccc(S(C)(=O)=O)cc2s1 | -10.1
59 | CN(C)C(=O)CN1C(=O)C2CC=C(Cl)CC2C1=O (centres undefined) | 0.8
60 | Cc1cc2c(cc1C)NC(c1ccc([N+](=O)[O-])o1)C1=C(CC(C)(C)CC1=O)N2 (centres undefined) | -2.5
61 | CCOC(=O)c1sc(C)c2c(=O)[nH]cnc12 | 2.8
62 | CC(C)(C)c1ccc(C(=O)Nc2ccc(Br)cn2)cc1 | -16.9
63 | COc1ccccc1C1/C(=C(\O)c2ccc(F)cc2)C(=O)C(=O)N1CCCCCC(=O)O (centres undefined) | -4.6
64 | COc1ccc(CNC(=O)COc2ccc3ccccc3c2)cc1 | -22
65 | CCCCP(=O)(CCCC)COc1ccc(Br)cc1 | 18.1
66 | CCONC(=NCc1ccccc1)c1nonc1N | 9
67 | COc1ccc(-c2nc(=S)c3c(n2-c2ccccc2)CCCC3)cc1 | 7.2
68 | O=C(Nc1cc(Cl)cc(Cl)c1)C1COc2ccccc2O1 (centres undefined) | -3.6
69 | O=C(Nc1ccc(Br)cc1)c1nc2nc(-c3ccccc3)cc(C(F)(F)F)n2n1 | -9.3
